Reference: PMC4336329 (PLoS ONE, 2015)
Among all 310,000 compounds or so, about 14,000 (4.5%) showed an effect of 50% or more. Effects have a minus sign here. This is one part of the list.

What follows are molecules tested against human ether-à-go-go-related gene (hERG) potassium channel (human, UniProt Q12809) (assay: primary screen, population patch clamp on CHO cells stably expressing hERG).
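Note: peak tail current of the secondary pulse compared with the same well before compound.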

Sequence of human ether-à-go-go-related gene (hERG) potassium channel (Q12809 whole entry, looked up): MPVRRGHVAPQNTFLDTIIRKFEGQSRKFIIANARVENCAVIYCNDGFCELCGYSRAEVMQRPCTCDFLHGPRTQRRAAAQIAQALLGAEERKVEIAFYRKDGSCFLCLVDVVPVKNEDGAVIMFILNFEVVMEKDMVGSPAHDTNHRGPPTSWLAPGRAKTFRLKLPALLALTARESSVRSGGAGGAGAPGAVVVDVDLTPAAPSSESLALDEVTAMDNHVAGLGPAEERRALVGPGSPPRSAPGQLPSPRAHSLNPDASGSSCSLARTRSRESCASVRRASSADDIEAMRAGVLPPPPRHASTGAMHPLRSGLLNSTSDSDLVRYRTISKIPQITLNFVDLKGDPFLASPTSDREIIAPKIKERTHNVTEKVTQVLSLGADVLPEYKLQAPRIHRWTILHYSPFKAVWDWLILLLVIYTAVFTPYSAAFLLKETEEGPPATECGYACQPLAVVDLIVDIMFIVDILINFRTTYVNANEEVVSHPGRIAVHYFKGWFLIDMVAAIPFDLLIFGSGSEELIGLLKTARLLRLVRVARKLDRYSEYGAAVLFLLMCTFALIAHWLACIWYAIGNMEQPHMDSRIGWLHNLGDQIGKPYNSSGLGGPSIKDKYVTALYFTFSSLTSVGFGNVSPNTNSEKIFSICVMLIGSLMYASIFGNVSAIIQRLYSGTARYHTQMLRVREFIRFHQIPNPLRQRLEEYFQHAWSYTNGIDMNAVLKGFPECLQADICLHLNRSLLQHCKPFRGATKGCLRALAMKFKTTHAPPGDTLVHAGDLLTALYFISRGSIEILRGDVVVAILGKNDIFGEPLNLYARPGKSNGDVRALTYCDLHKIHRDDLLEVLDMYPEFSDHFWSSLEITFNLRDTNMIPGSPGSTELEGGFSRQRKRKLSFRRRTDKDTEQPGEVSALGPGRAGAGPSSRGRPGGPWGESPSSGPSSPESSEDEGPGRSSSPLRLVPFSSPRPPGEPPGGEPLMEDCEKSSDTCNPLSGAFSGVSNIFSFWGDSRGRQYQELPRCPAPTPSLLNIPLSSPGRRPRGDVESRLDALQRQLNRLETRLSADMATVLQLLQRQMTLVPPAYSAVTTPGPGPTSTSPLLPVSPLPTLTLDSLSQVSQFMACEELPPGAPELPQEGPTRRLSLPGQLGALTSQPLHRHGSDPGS

Going from `CC1CCN(C(=O)CC2C(=O)Nc3c2c(=O)n(C)c(=O)n3Cc2ccccc2)CC1` (stereo not drawn) to `COCCN(C(=O)COC(=O)C1CCC(C(C)(C)C)CC1)c1c(N)n(Cc2ccccc2)c(=O)[nH]c1=O` (stereo not drawn), the “hERG current change (%, negative = inhibition) at 10uM” value falls from 7.07% to -2.61%.

Going from `NC(=O)CSc1nnc(-c2ccc3c(c2)OCO3)o1` to `CSc1nsc(N/N=C/c2ccc3c(c2)OCO3)c1C#N`, the “hERG current change (%, negative = inhibition) at 10uM” value rises from 6.02% to 12.9%.

First: COC(=O)c1ccccc1NC(=S)N1CCOCC1
Second: COc1ccccc1NC(=O)NNC(=O)CCN1CCOCC1
The “hERG current change (%, negative = inhibition) at 10uM” value of the first is higher: 22.2% for the first, 12.7% for the second.

Compared with `CCC(CC)C(=O)Nc1ccc([N+](=O)[O-])cn1`, `Cc1cc(C)cc(OCC(=O)OC(C)C(=O)Nc2ccc(Cl)cn2)c1` (stereo not drawn) is lower in “hERG current change (%, negative = inhibition) at 10uM” value: 10.8% for the first, 5.07% for the second.

First: COc1ccccc1CCC(=O)Nc1cccc(S(=O)(=O)N2CCCCCC2)c1
Second: O=C(COC(=O)CCS(=O)(=O)c1ccccc1)Nc1cc(S(=O)(=O)N2CCCCC2)ccc1Cl
The “hERG current change (%, negative = inhibition) at 10uM” value of the first is higher: -2.9% for the first, -4.61% for the second.

Compared with `CCCCCc1nc2c(=O)n(C)c3ccccc3c2o1`, `Cc1ccc(S(=O)(=O)c2c(N)n(C)c3nc4ccccc4nc23)cc1` is higher in “hERG current change (%, negative = inhibition) at 10uM” value: -46.7% for the first, -5.92% for the second.

First: Cc1nnc(-c2cnn(-c3ccccc3)c2N)n1Cc1ccccc1
Second: NC(=O)c1ccsc1NC(=O)c1nc(-c2ccccc2)n(-c2ccccc2)n1
The “hERG current change (%, negative = inhibition) at 10uM” value of the first is lower: -1.94% for the first, 8.47% for the second.

First: COc1ccc(NC(=O)C(c2ccccc2)N(C)C(=O)CNC(C)=O)cc1 (stereo not drawn)
Second: CN(C)c1ccc(/C=N/NC(=O)c2ccc(NC(=O)c3ccccc3)cc2)cc1
The “hERG current change (%, negative = inhibition) at 10uM” value of the first is higher: 20.8% for the first, -4.1% for the second.

Compared with `CCCN(CC(=O)Nc1ccc(C)cc1Br)CC(=O)Nc1ccc(F)c(F)c1F`, `CCOC(=O)C1=C(c2ccccc2)NC(SCC(=O)Nc2ccc(C)cc2)=C(C#N)C1c1ccco1` (stereo not drawn) is lower in “hERG current change (%, negative = inhibition) at 10uM” value: -4.78% for the first, -22.9% for the second.

Compared with `CCOC(=O)N1CCC(N2Cc3cccc(C(=O)Nc4cccc(F)c4)c3C2=O)CC1`, `CCOC(=O)N1CCN(Cc2c(F)cccc2Cl)CC1` is higher in “hERG current change (%, negative = inhibition) at 10uM” value: -72.1% for the first, -2.03% for the second.

First: CCOC(=O)c1sc2nc(C)nc(N3CCCCC3C)c2c1C (stereo not drawn)
Second: CCOC(=O)c1c(SCC(=O)Nc2nccs2)nc(C)c(C)c1C
The “hERG current change (%, negative = inhibition) at 10uM” value of the first is lower: -26.9% for the first, 23.7% for the second.

Going from `O=C(C[n+]1ccccc1)Nc1ccccc1C(F)(F)F.[Cl-]` to `O=C(CC1S/C(=N/N=C2CCCCCC2)NC1=O)Nc1ccccc1C(F)(F)F` (stereo not drawn), the “hERG current change (%, negative = inhibition) at 10uM” value falls from 15% to 5.98%.

Compared with `Cn1cc(C(=O)C(=O)N2CCc3ccccc32)c2ccccc21`, `O=C1c2ccccc2C(O)(c2ccccc2)N1C1CC1` (stereo not drawn) is lower in “hERG current change (%, negative = inhibition) at 10uM” value: 19.7% for the first, -45.4% for the second.

Compared with `COc1cccc(/C=C2/SC(=S)N(CCCC(=O)Nc3ccc(O)cc3)C2=O)c1`, `O=C(CCN1C(=O)/C(=C/c2cccs2)SC1=S)Nc1ccc(O)cc1` is higher in “hERG current change (%, negative = inhibition) at 10uM” value: 7.8% for the first, 10.1% for the second.

Compared with `O=C(NNS(=O)(=O)c1ccccc1[N+](=O)[O-])c1ccc(F)cc1`, `O=C(Nc1cccc(S(=O)(=O)NCc2ccco2)c1)c1cc(-c2ccc(F)cc2)nc2ccccc12` is lower in “hERG current change (%, negative = inhibition) at 10uM” value: 16.3% for the first, 3.15% for the second.

Going from `CN(C)CCCN(C(=O)c1ccc(S(=O)(=O)N(C)Cc2ccccc2)cc1)c1nc2c(F)cccc2s1.Cl` to `CC(C)CN(C(=O)c1cccc(Cl)c1)c1c(N)n(Cc2ccccc2)c(=O)[nH]c1=O`, the “hERG current change (%, negative = inhibition) at 10uM” value rises from -38.2% to 13.6%.

Going from `Cc1cc(C)nc(NC(=NCCc2c[nH]c3ccccc23)NC(=O)Nc2ccc(Cl)cc2)n1` to `Cc1cc(C)nc(SCCCNCc2ccccc2)n1.Cl`, the “hERG current change (%, negative = inhibition) at 10uM” value falls from 9.33% to -3.19%.

Going from `S=c1[nH]nc(Cc2cccs2)n1-c1cccc2ccccc12` to `O=C(CCCN1C(=O)/C(=C\c2ccco2)SC1=S)Nc1ccc2ccccc2c1`, the “hERG current change (%, negative = inhibition) at 10uM” value rises from -10.4% to 1.55%.

Going from `c1ccc(-c2nnsc2-c2ccccc2)cc1` to `CCOC(=O)c1cn(-c2ccccc2)nc1-c1cccnc1`, the “hERG current change (%, negative = inhibition) at 10uM” value falls from -3.66% to -37.3%.

First: Oc1c(CN2CCCCC2)cc(Br)c2cccnc12
Second: Cl.Nc1ccc(N2CCCCCC2)cc1
The “hERG current change (%, negative = inhibition) at 10uM” value of the first is higher: 0.599% for the first, -9.09% for the second.

Going from `CSc1ccc(/C=C/C(=O)c2ccc(NC(C)=O)cc2)cc1` to `COC(=O)C1CCN(S(=O)(=O)c2ccc(NC(C)=O)cc2)CC1`, the “hERG current change (%, negative = inhibition) at 10uM” value falls from 12.6% to 2.04%.

First: Cc1ccc2nc(NCCCO)[nH]c2c1
Second: Cc1cc(C)cc(Oc2nn[nH]n2)c1
The “hERG current change (%, negative = inhibition) at 10uM” value of the first is lower: 10% for the first, 22.2% for the second.

First: Cc1ccc(S(=O)(=O)N2CCOCC2)cc1C(=O)NC1CCCC1
Second: O=C(c1ccc(Cl)c(S(=O)(=O)N2CCCC2)c1)N1CCOCC1
The “hERG current change (%, negative = inhibition) at 10uM” value of the first is higher: 19.8% for the first, -23.2% for the second.

First: O=C(N/N=C/c1cccc(Br)c1)c1ccc(Cn2cc(Br)cn2)o1
Second: COc1ccc(C(=O)NCc2cccnc2)cc1OC
The “hERG current change (%, negative = inhibition) at 10uM” value of the first is lower: -40.9% for the first, 7.23% for the second.

Compared with `CNC[C@@H](C)NC[C@@H](Cc1ccccc1)NCCc1ccccc1`, `O=C(NCCCN1CCOCC1)C(Sc1ccccc1)c1ccccc1` (stereo not drawn) is higher in “hERG current change (%, negative = inhibition) at 10uM” value: -19.7% for the first, -12.5% for the second.

First: COc1ccc(C2=NOC(C(=O)NC3CCCCC3)C2)cc1OC (stereo not drawn)
Second: COc1ccc(S(=O)(=O)Cc2ccc(C(=O)N3CCN(C4CCCCC4)CC3)o2)cc1
The “hERG current change (%, negative = inhibition) at 10uM” value of the first is higher: -16.8% for the first, -32.7% for the second.

Going from `Cc1cccn2c(=O)c3cc(C(=O)NC4CCCC4)c(=N)n(CCc4ccccc4)c3nc12` to `O=C(CN(CC1CCCO1)C(=O)CCC(=O)Nc1ccccn1)NCc1ccccc1` (stereo not drawn), the “hERG current change (%, negative = inhibition) at 10uM” value rises from -74.5% to 2.7%.

Going from `C/C(=N\NC(=O)c1ccco1)c1ccc(C(=O)O)s1` to `CCN(CC(=O)NCc1cccs1)C(=O)c1ccc([N+](=O)[O-])o1`, the “hERG current change (%, negative = inhibition) at 10uM” value falls from -3.03% to -33.8%.

Compared with `Cc1ccc(C)c2[nH]c(=O)c(CN(CCN3CCCC3)C(=O)Nc3cccc(Cl)c3)cc12`, `Clc1cccc(OCCN2CCN(CCOc3cccc(Cl)c3)CC2)c1` is higher in “hERG current change (%, negative = inhibition) at 10uM” value: -74.1% for the first, -70.8% for the second.

Going from `COc1ccc(S(=O)(=O)N2CCOCC2)cc1NC(=O)CCNC(=O)c1ccc(Br)cc1` to `CC1CC(C)CN(CC(=O)Nc2cc(S(=O)(=O)N3CCOCC3)ccc2N2CCCC2)C1` (stereo not drawn), the “hERG current change (%, negative = inhibition) at 10uM” value rises from -16.8% to 5.56%.

Going from `O=C(COc1ccc2c3c(c(=O)oc2c1)CCCC3)NCCCn1ccnc1` to `CCCOc1ccc2c(=O)c(-c3cc(C(=O)OC)oc3C)c(C)oc2c1`, the “hERG current change (%, negative = inhibition) at 10uM” value falls from -17.3% to -26.1%.

First: CCCS(=O)(=O)c1nc(S(=O)(=O)c2ccc(C)cc2)c(N2CCc3ccccc3C2)s1
Second: COc1ccc([C@@H]2CC=C(C(=O)O)[C@H](c3ccc(F)cc3)N2S(=O)(=O)c2ccc(C)cc2)cc1OC
The “hERG current change (%, negative = inhibition) at 10uM” value of the first is lower: 5.34% for the first, 10.5% for the second.

Going from `NC(=O)c1sc2nc3c(c(-c4ccc(Cl)cc4)c2c1N)CCCC3` to `CC(=O)c1c(C)[nH]c(=S)c(C#N)c1-c1ccc(F)cc1`, the “hERG current change (%, negative = inhibition) at 10uM” value rises from 12.1% to 23%.

Compared with `COCc1ccc(C(=O)N2CCCC(CCC(=O)NCc3ccccc3F)C2)o1` (stereo not drawn), `Cc1noc(C)c1COc1cccc(C(=O)OCC(=O)N2CC(=O)Nc3ccccc32)c1` is higher in “hERG current change (%, negative = inhibition) at 10uM” value: -2.18% for the first, -0.541% for the second.

First: CCCCCCn1c(CN2CCN(C(=O)OCC)CC2)nc2c1c(=O)n(C)c(=O)n2C
Second: CCC(C)[C@H]1CNC(=O)C(=O)N1CCCc1cc(OC)c(OC)c(OC)c1 (stereo partly drawn)
The “hERG current change (%, negative = inhibition) at 10uM” value of the first is lower: -53.5% for the first, 9.16% for the second.

Compared with `O=C(CCC(=O)c1cccs1)NC(c1ccccc1)c1ccccc1`, `Cc1ccc(CNC(=O)C(NS(=O)(=O)c2cccs2)C(C)C)cc1` (stereo not drawn) is lower in “hERG current change (%, negative = inhibition) at 10uM” value: 6.3% for the first, 2.56% for the second.

Compared with `COc1ccc(/C=N/n2c(C)nnc2C)c(OC)c1OC`, `COc1cccc(OCCOc2c(OC)cccc2OC)c1` is lower in “hERG current change (%, negative = inhibition) at 10uM” value: 21.5% for the first, 0.336% for the second.

First: CC(C)C[C@H](NC(=O)c1nc[nH]c1C(=O)NCCCCCNC(=O)OC(C)(C)C)C(=O)OC(C)(C)C
Second: CC(C)(C)NCC(O)COc1cccc2c1CC(O)C(O)C2 (stereo not drawn)
The “hERG current change (%, negative = inhibition) at 10uM” value of the first is higher: 5.12% for the first, 2.6% for the second.

First: COc1ccc(-n2cnnc2SCc2csc(-c3ccccc3)n2)cc1
Second: CC1(C)Cc2ccccc2-c2nnc(-c3ccco3)n21
The “hERG current change (%, negative = inhibition) at 10uM” value of the first is lower: -36.7% for the first, 10.1% for the second.

First: O=C(/C=C/c1ccccc1)NCCN1CCOCC1
Second: CCOc1ccccc1N(C(=O)c1snc(C(N)=O)c1N)C(C(=O)NCC1CCCO1)c1ccc2ncccc2c1 (stereo not drawn)
The “hERG current change (%, negative = inhibition) at 10uM” value of the first is higher: 20.6% for the first, 12.6% for the second.

Compared with `CSc1nc2c(cc1C#N)CCC2`, `CCC(C)Nc1nc(N)c([N+](=O)[O-])c(NC2CCCCC2)n1` (stereo not drawn) is higher in “hERG current change (%, negative = inhibition) at 10uM” value: 8.13% for the first, 35.1% for the second.

Compared with `COC(=O)[C@]1(CC(C)C)N[C@H](c2ccc(-c3ccc(F)cc3)cc2)[C@@H]2C(=O)N(C)C(=O)[C@@H]21.O=C(O)C(F)(F)F`, `COc1cc(NC(=O)CN2C(=O)NC(C)(c3ccc4ccccc4c3)C2=O)c(C)cc1[N+](=O)[O-]` (stereo not drawn) is higher in “hERG current change (%, negative = inhibition) at 10uM” value: -15.7% for the first, -1% for the second.

Going from `CC(C)CN(CC(C)C)C(=S)NC1CCCCC1` to `COC1(OC)C(=N/O)/C(=N\O)CCC1O` (stereo not drawn), the “hERG current change (%, negative = inhibition) at 10uM” value falls from 9.09% to -6.26%.

In the case of `Fc1cccc(Cl)c1/C=C/c1cnc2ccccc2n1`, the “hERG current change (%, negative = inhibition) at 10uM” value is reported as 28.1%.
